Sequences and labels used below:
T1: UNK ZnF1-6 (called full-length) (human, UniProt Q9C0B0 30-357)
T1 sequence: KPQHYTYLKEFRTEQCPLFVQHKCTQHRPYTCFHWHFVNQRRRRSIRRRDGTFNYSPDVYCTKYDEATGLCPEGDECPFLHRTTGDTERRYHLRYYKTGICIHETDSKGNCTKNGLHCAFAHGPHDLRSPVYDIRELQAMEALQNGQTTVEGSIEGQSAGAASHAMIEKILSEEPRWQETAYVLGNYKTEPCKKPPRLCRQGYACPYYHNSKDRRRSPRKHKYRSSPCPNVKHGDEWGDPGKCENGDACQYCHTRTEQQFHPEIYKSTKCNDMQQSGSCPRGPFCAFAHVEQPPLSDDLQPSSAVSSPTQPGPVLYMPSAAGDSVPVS

B1: ENSG00000126767:stop:overlap|stop_codon|ENSG00000126767|stop_codon|NA|stop_codon (ssRNA)
RNA: GGGAGUUCUACAGUCCGACGAUCUGAGCGGCCAGAAGUUCGUCUACAAGUUUGUGUCCUACCCUGAGUCCCAUUGCGCCCCGUAGCCCGGCCAAGCUCUCCUUCCAGUUUCCAUCCAGUGGCAGCGCCCAGGUGCACAUCCCUCAACAGAGGAUUGAGCAUCA
B2: ENSG00000011304:stop:overlap|stop_codon|ENSG00000011304|stop_codon|NA|stop_codon (ssRNA)
RNA: GGGAGUUCUACAGUCCGACGAUCACAACCACGACCUCGGGGAGAACCACCACCUGCGGGUCUCCUUCUCCAAGUCCACCAUCUAGGGGCACAGGCCCCCACGGCCGGGCCCCCUGGCGACAACUUCCAUCAUUCCAGAGAAAACAACAGAGGAUUGAGCAUCA
B3: chr3:98799072:98799370:-|3pUTR|ENSG00000057019|msi1|total|mutant (ssRNA)
RNA: GGGAGUUCUACAGUCCGACGAUCCAAAGCAUCGUUUUAAAGCACAUGGCCUUUUUUUUUUAAUUAUCCGUGGCCGUAAUAUACCGAAUGUAUUACAUAACUGUCACUGAAGUGGUUGGGGAAAAUGUGGUGACUGAGGUACAGCAACAGAGGAUUGAGCAUCA
B4: chr11:60923185:60923286:+|3pUTR|ENSG00000110108|msi1|total|mutant (ssRNA)
RNA: GGGAGUUCUACAGUCCGACGAUCCAGAGAGCAGGGUGAGCUGCCAGCUGCCCCUCUCCACCAGGGUACCCUGUCUUGGUGGUCCGGGGCCACUUUUCCUUUGAGGCUCCCGUGGAGGUGGAUGUCCUUCUCUGCCAGGCUUGGCAACAGAGGAUUGAGCAUCA
B5: chr14:22633770:22634811:-|CDS|ENSG00000255804|control|control|control (ssRNA)
RNA: GGGAGUUCUACAGUCCGACGAUCAGUGGAAGGAAGAAGGCCUUUAAUACCUGUGCUUCCCACCUGACCAUAGUCAUCAUUUCUAGUGGCAUCACUGUGUUUAUCUAUGUGACUCCCUCCCAGAAAGAAUAUCUGGAGAUCAACCAACAGAGGAUUGAGCAUCA
B6: chr4:56448489:56448593:+|CDS|ENSG00000128050|unk|FALSE|bound_elsewhere (ssRNA)
RNA: GGGAGUUCUACAGUCCGACGAUCCCCACAGUGGUCUGAGGAACAGCUGAUUGCUGCAAAAUUUUGCUUUGCUGGACUUCUUAUAGGCCAGACUGAAGUGGAUAUCAUGAGUCAUGCUACACAGGCUAUAUUUGAAAUACUGGACAACAGAGGAUUGAGCAUCA
B7: chr7:100040983:100041096:+|3pUTR|ENSG00000106261|unk|total|mutant (ssRNA)
RNA: GGGAGUUCUACAGUCCGACGAUCGACCGCCAAGCAAAAUCAGUAAUUAUUUUAAAAUGAACAUAUGUAUUUUUAUUAACUUUCCGUUAAAUACAGAUUUUACAACGAGGUCAGCAUAAGCCUAAAUCUAUACCGAGGGCUAACCAACAGAGGAUUGAGCAUCA
B8: chr14:39095999:39096113:-|CDS|ENSG00000100934|unk|total|mutant (ssRNA)
RNA: GGGAGUUCUACAGUCCGACGAUCACAAUGACAACCUAUUUGGAAUUCAUUCAACAAAAUGAAGAACGAGAUGGAGUCCGAUUCCGUUGGAAUGUUUGGCCAUCAAGUCGACUGGAAGCUACAAGAAUGGUUGUUCCUGUGGCACAACAGAGGAUUGAGCAUCA
B9: chr8:97851540:97851652:+|3pUTR|ENSG00000104341|msi1_unk|total|mutant (ssRNA)
RNA: GGGAGUUCUACAGUCCGACGAUCCACUUUUGCCAUGAGCCUCUCUGAGCUUGUUUGUUGCUGAAAUGCUACUUUUUAAAAUUCCGAUGUCCGAUUGAAAACUGCCGUUUUCAACAUAUGCUUUGCUGGAACACUGUGACCGAUCAACAGAGGAUUGAGCAUCA
B10: ENSG00000155158:stop:overlap|stop_codon|ENSG00000155158|stop_codon|NA|stop_codon (ssRNA)
RNA: GGGAGUUCUACAGUCCGACGAUCAAACCAUCUCAAUUUGGCUUAAAAAAAAAUCUGGUAGAAGAGAGGGAAAGACAUCUUCAUAGUGGGACUAUAUUCAUUCCUCCAAAGUUACAGCUGCUCUAAAUCUGUGAGUGCUGAAAUCAACAGAGGAUUGAGCAUCA
B11: ENSG00000124766:be:win_701|CDS|ENSG00000124766|bound_else_gene|NA|bound_elsewhere_windowed (ssRNA)
RNA: GGGAGUUCUACAGUCCGACGAUCCCGCCUCCUUCGCCGCCGAACAGGCGGGGGCCGCCGCCCUGCUGCCCCUGGGCGCCGCCGCCGACCACCACUCGCUGUACAAGGCGCGGACUCCCAGCGCCUCGGCCUCCGCCUCCUCGGCAACAGAGGAUUGAGCAUCA
B12: ENSG00000198589:be:win_3101|CDS|ENSG00000198589|bound_else_gene|NA|bound_elsewhere_windowed (ssRNA)
RNA: GGGAGUUCUACAGUCCGACGAUCUGGAAGAAACACUGACAAAUGAGACAAGGAAUGCAGAUGAUUUAGAAGUAUCUUCUGACAUAAUAGAAGCUGUGGCUAUUUCCUCUAAUUCUUUUAUAACAACUGGCAAAGAUUCAAUGACAACAGAGGAUUGAGCAUCA
B13: chrX:150768173:150768360:-|3pUTR|ENSG00000102181|msi1|total|mutant (ssRNA)
RNA: GGGAGUUCUACAGUCCGACGAUCUCCCAUCUGAUUCCACCGGGGGCUGGGUGUGGCCUUCGGGUUGACAUGAGAAAGGUCUUCCGCAAUCAUUUCUGCACCGGAGAUGAGUUUUAUCCUGUGUUGGGGAGAGGUGCUCACCCUCAACAGAGGAUUGAGCAUCA
B14: chr17:74609884:74612652:-|three_prime_utr|ENSG00000186407|control|control|control (ssRNA)
RNA: GGGAGUUCUACAGUCCGACGAUCGACCUGUGGACUCUGGAGGGAUUUAUUGUUCCUGUGCCUCAAAGGAGGGUCCUGGCUCUUAGAGGACACUCCUCUGGAGUCCUCAAUGUGCAGCUUGGGGGUCCUCCUUUCUCCUCCCCACAACAGAGGAUUGAGCAUCA

The other results are listed elsewhere or left out.

This test concerns the target T1, UNK ZnF1-6 (called full-length). Kind of test: nsRBNS (natural sequence RNA bind-n-seq); RBNS binding buffer (assumed for nsRBNS): 25 mM Tris pH 7.5, 150 mM KCl, 3 mM MgCl2, 0.01% Triton X-100, 500 ug/ml BSA, 20 U/ml SUPERase-In, 4 C; UNK is unkempt and MSI1 is Musashi-1; names of the RNAs are library labels; protein concentration not given here; high values mean tight binding.
The molecule B1 registered a binding signal of 1.05 enrichment R. B2 came in with a binding signal of 0.607 enrichment R. Consider B3, for which the binding signal amounted to 0.725 enrichment R. Take B4: the binding signal stood at 0.603 enrichment R.

In the case of B5, the binding signal amounted to 0.803 enrichment R. As for B6, the figure is 0.438 enrichment R; as for B7, 0.51 enrichment R; as for B8, 0.363 enrichment R. The same measure for B9: 0.351 enrichment R.

The molecule B10 returned a binding signal of 0.735 enrichment R.

On to B11, for which the binding signal came to 0.695 enrichment R. For B12, the binding signal worked out at 0.6 enrichment R.

In turn, B13 displayed a binding signal of 0.678 enrichment R. B14: the binding signal was determined as 0.671 enrichment R.

Source of the values: article PMC12136788.
